± gives the standard deviation of the averaged measurements. The full ranking holds about 33,000 sequences; the median of “E-score (dimensionless, -0.5 to 0.5)” is about -0.049, and the highest 2% start at about 0.37. The list shows a part of the results.
Each sequence was assayed on T1, PmTbr T-box DNA-binding domain (GST fusion) (assay: PBM E-score of 8-mer (E-score (dimensionless, -0.5 to 0.5)); Tbr is Tbrain of the sea star Patiria miniata (Pm) or the sea urchin Strongylocentrotus purpuratus (Sp); higher = stronger binding preference; most listed sequences are background and not binding sites). Conditions: the construct has about 5 more residues each side.
T1 sequence: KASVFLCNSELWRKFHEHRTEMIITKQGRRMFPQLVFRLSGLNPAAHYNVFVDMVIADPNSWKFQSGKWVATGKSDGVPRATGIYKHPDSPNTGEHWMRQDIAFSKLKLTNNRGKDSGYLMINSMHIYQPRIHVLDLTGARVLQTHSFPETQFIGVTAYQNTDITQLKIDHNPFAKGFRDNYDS
In short: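 Universal Agilent oligonucleotide arrays, made double-stranded by primer extension, were incubated with 200 nM GST-fused Tbr T-box DNA-binding domain in PBS (pH 7.5). The protein was expressed in BL21 E. coli at 20 °C and purified by glutathione affinity chromatography. After scanning and quantification, the Universal PBM Analysis Suite assigned an enrichment E-score to each ungapped 8-mer, averaged over duplicate arrays.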

Sequence	PBM E-score of 8-mer
GCTGCACC	0.153 ± 0.013
CCCGGAAC	-0.119 ± 0.05
AACTGTAA	0.0675 ± 0.059
GAGGCCGC	-0.106 ± 0.0075
CTACCATC	0.0652 ± 0.017
AGAGCTTA	-0.0767 ± 0.015
ATCTCATA	-0.127 ± 0.024
CGGACCCG	0.0789 ± 0.022
ACCTCATC	0.028 ± 0.1
CGGGCTTA	-0.155 ± 0.018
GATTACAC	0.199 ± 0.091
GCAAGGGA	-0.0713 ± 0.1
ACCTTCAC	0.274 ± 0.025
ATATTATC	0.0113 ± 0.083
AGCGGGTG	0.308 ± 0.017
CATAGCCA	-0.0119 ± 0.045
AGTCGCTA	0.306 ± 0.031
CTAGGCCC	-0.274 ± 0.082
CAAGTCCC	0.0953 ± 0.0036
GTGGGACA	0.114 ± 0.029
ATGTCCAC	-0.161 ± 0.035
ATCCTATA	-0.114 ± 0.056
GACCGTAC	-0.213 ± 0.057
CACTGAAA	-0.0107 ± 0.025
CGATAATC	0.151 ± 0.037

Sequence	PBM E-score of 8-mer
ACGTCACC	0.295 ± 0.053
ACACCAGG	0.275 ± 0.018
AAATCAAC	0.0774 ± 0.0044
CTCGCTCC	0.117 ± 0.023
AATACGCA	0.114 ± 0.049
ACGCGGGC	-0.163 ± 0.075
AGGTATTC	0.0762 ± 0.05
GTCGCCTA	0.105 ± 0.057
AGCGAGCA	0.0802 ± 0.054
CCACGGAC	-0.0809 ± 0.028
CGAGCCAA	-0.171 ± 0.074
CTTACCCC	-0.0653 ± 0.067
ACTTGTTG	0.332 ± 0.018
CTCAGAAA	-0.15 ± 0.013
AAGAGACG	-0.275 ± 0.021
AGTACGCA	-0.0551 ± 0.032
CGGCTCTA	0.0438 ± 0.0021
ATGTACCG	-0.047 ± 0.051
AAGGAGTG	0.206 ± 0.011
ACCAATAT	0.125 ± 0.053
CAGACTAA	-0.081 ± 0.021
ACCTCGCA	0.293 ± 0.0053
AACAGCAA	0.0396 ± 0.025
CGCCAAGC	0.0166 ± 0.082
ACACACGC	0.0894 ± 0.043

Sequence	PBM E-score of 8-mer
AACCGTGA	0.234 ± 0.075
GAGACCTC	-0.252 ± 0.019
CACGGTGA	0.2 ± 0.021
CTCGGCGC	0.0429 ± 0.085
ACGCAATG	-0.0322 ± 0.018
CGGCCATA	-0.12 ± 0.0028
CGCCATAG	0.00713 ± 0.06
ATAGCACC	0.416 ± 0.012
CAGCATAG	-0.0612 ± 0.039
CAGAGTCG	0.164 ± 0.014
AGGTCTTA	-0.196 ± 0.013
ATGTAAAG	-0.293 ± 0.035
CGTCGGCC	-0.0457 ± 0.072
ATGACAAG	0.114 ± 0.0079
GACTTGGC	0.122 ± 0.04
GAGCCTTA	-0.224 ± 0.089
GTACGTAC	-0.0199 ± 0.077
GCAAAACA	0.127 ± 0.036
GTCATTCA	0.04 ± 0.065
AATACTAT	-0.101 ± 0.059
CCCTCGAC	0.106 ± 0.065
CGCGGGGA	-0.0567 ± 0.048
ACCCGTAA	-0.0431 ± 0.0047
AAGATATA	-0.0189 ± 0.016
ATCTATCA	-0.0454 ± 0.036

Sequence	PBM E-score of 8-mer
CTGCAACA	0.00995 ± 0.017
CCTGTGTA	-0.0943 ± 0.069
CAGGAGAG	-0.248 ± 0.023
AGGGTGTC	0.435 ± 0.014
CCAAGAGG	0.157 ± 0.072
AGAGCAAA	-0.099 ± 0.029
AGAGATAC	-0.242 ± 0.021
ATAGAATA	-0.17 ± 0.035
AAGGAGGC	-0.181 ± 0.009
CAAGACCA	-0.216 ± 0.0056
CCCCCTCG	-0.205 ± 0.016
GTCTGCTA	0.0147 ± 0.0016
ATTATGGG	-0.187 ± 0.059
ACTTCTGC	0.00198 ± 0.037
CATGACGC	0.0355 ± 0.06
CCGAATTC	-0.16 ± 0.067
GGTAATTA	-0.105 ± 0.006
GACATGAC	0.0395 ± 0.04
CGACGGCA	-0.0228 ± 0.043
AAGCTCTA	-0.31 ± 0.066
ATCACGGG	0.0677 ± 0.015
GGAAGTAA	-0.0591 ± 0.1
CGCTGGAA	0.00137 ± 0.015
CATTCCCC	-0.067 ± 0.011
ACCATGTC	0.0732 ± 0.021

Sequence	PBM E-score of 8-mer
CGGTTTTA	-0.0112 ± 0.055
GCGTGACA	0.365 ± 0.0062
CTGCTATA	-0.0317 ± 0.008
CCTAAGCA	-0.0705 ± 0.079
GAAATGCA	-0.0545 ± 0.12
GCGCTGCC	0.128 ± 0.037
CAATCGAG	0.06803 ± 0.0002
CAAAAGGG	-0.119 ± 0.04
TCTGCTCA	0.00641 ± 0.038
GAAAAGAC	-0.0377 ± 0.11
CGCCTTAC	0.242 ± 0.019
GACAAATC	0.179 ± 0.0078
CTAAGACA	-0.0384 ± 0.05
GAAAAAAA	0.132 ± 0.022
CCGGTTTC	0.0411 ± 0.019
AGGCCCTG	-0.132 ± 0.012
CGCGCTGA	0.14 ± 0.024
AGCAGTCC	-0.233 ± 0.06
GACATTCA	0.073 ± 0.0067
GTACACGA	-0.251 ± 0.085
CCGTATGA	-0.119 ± 0.047
TTACTGAA	-0.167 ± 0.0054
ATAGATAC	-0.259 ± 0.032
GTCATAAC	0.0358 ± 0.0092
CCGGTTTA	-0.244 ± 0.026

Sequence	PBM E-score of 8-mer
AGGCCAGA	-0.128 ± 0.011
CCACCGGG	-0.0851 ± 0.12
CATTTAAA	-0.203 ± 0.13
GAATCATA	0.0757 ± 0.097
AAAAGTGC	0.2475 ± 0.00082
CATCACTA	0.0705 ± 0.011
CGGTGACA	0.333 ± 0.0054
AACATGTG	0.267 ± 0.019
CATAGCAC	0.306 ± 0.029
CCCCGACG	-0.0732 ± 0.002
CTAAACAG	0.0676 ± 0.071
AACCCGCG	0.216 ± 0.0078
CTAAAGAG	-0.15 ± 0.016
CTAGACGC	-0.0184 ± 0.035
CGTTACCA	0.0912 ± 0.01
ATTACTTA	-0.162 ± 0.1
CTTATTTC	0.0468 ± 0.1
CCGTACCA	-0.113 ± 0.064
GGCAGGAC	-0.155 ± 0.13
GAACGACA	0.106 ± 0.025
GCCTCCCA	-0.113 ± 0.083
CACTGTAC	0.0171 ± 0.019
CATAATGC	0.000495 ± 0.0089
ACGTTGCT	-0.0651 ± 0.07
AGTTTTTG	-0.0234 ± 0.019

Sequence	PBM E-score of 8-mer
GATTTACA	0.117 ± 0.013
GCACCGAC	-0.0215 ± 0.1
CACTACGA	-0.012 ± 0.048
GAAGCTGA	-0.114 ± 0.02
GGATTAGA	-0.28 ± 0.034
AGATAACG	0.0484 ± 0.029
TCGATTCA	0.0262 ± 0.015
CCTCATCA	-0.196 ± 0.03
ATCTCTCG	0.0243 ± 0.012
GTTACAGA	-0.0832 ± 0.06
ATACGAAT	-0.154 ± 0.018
CCCACGCC	0.08239 ± 0.00072
ACCGTTAC	-0.0115 ± 0.055
GGGAATTA	-0.211 ± 0.028
GACGCCTC	0.328 ± 0.029
CACTCTAA	0.0461 ± 0.013
CATTATAG	-0.04 ± 0.11
GCAGTTAC	-0.0313 ± 0.059
GTAAAGAA	-0.0605 ± 0.053
CGAATGAC	0.165 ± 0.072
AAGAAGGC	-0.0685 ± 0.02
CGTAGCTC	-0.164 ± 0.08

— the supplement of paper PMC4166925
